Source: paper PMC12136788
This is one part of the list.

T1: UNK ZnF1-6 (called full-length) (human, UniProt Q9C0B0 30-357)
T1 sequence: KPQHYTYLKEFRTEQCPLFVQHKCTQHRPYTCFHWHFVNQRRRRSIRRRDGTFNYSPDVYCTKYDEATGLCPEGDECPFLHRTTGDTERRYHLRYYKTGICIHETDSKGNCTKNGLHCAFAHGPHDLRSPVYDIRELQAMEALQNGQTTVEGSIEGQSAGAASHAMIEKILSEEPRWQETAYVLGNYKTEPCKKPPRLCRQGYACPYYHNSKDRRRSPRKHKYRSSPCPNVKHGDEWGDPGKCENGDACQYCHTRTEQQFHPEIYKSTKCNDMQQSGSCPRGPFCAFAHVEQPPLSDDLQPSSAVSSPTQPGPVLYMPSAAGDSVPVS

B1: chr7:113918214:113918996:-|CDS|ENSG00000154415|control|control|control (ssRNA)
RNA: GGGAGUUCUACAGUCCGACGAUCUGAGAAGUUAGUAUAUGUAAGAAUGUCUUUAGAUGACUGGCAGACACAUUAUGACAUUUUAGCAGAAUAUGUUCCUAAUUCAUGUGAUGGUGAAACUGACCAGUUCUCCUUUAAGAUUGUCAACAGAGGAUUGAGCAUCA
B2: chr11:75562225:75562326:+|5pUTR|ENSG00000149257|msi1|FALSE|unique (ssRNA)
RNA: GGGAGUUCUACAGUCCGACGAUCGCAGGAGGGGGUGGGGACUGCCAUAUAUAGAUCCCGGGAGCAGGGGAGCGGGCUAAGAGUAGAAUCGUGUCGCGGCUCGAGAGCGAGAGUCACGUCCCGGCGCUAGCCCAGCCCGACCCACAACAGAGGAUUGAGCAUCA
B3: chr16:33844783:33845086:-|CDS|ENSG00000259680|control|control|control (ssRNA)
RNA: GGGAGUUCUACAGUCCGACGAUCAGCUGGGUCCGCCAGGCUCCAGGGAAGGGACUGGAGUGGAUUUCAUACAUUAGUGGUGAUAGUGGUUACACAAACUACGCAGACUCUGUGAAGGGCCGAUUCACCAUCUCCAGGGACAACCAACAGAGGAUUGAGCAUCA
B4: chr9:21239001:21239365:-|three_prime_utr|ENSG00000228083|control|control|control (ssRNA)
RNA: GGGAGUUCUACAGUCCGACGAUCCAAAAUUUUCAAAUGUUUUCAGGAGUGUAAAGAAGCAUCAUGUAUACCUGUGCAGGCACUAGUCCUUUACAGAUGACCAUGCUGAUGUCUCCUUUCAUCUAUUUAUUUAAAUAUUUAUUUCAACAGAGGAUUGAGCAUCA
B5: chr5:119149357:119149458:+|CDS|ENSG00000172869|msi1|total|mutant (ssRNA)
RNA: GGGAGUUCUACAGUCCGACGAUCCUGGGAGAGUACCAAAGUUGUGCCCCUUUCUAAAUUUGUACUAUUACGAAGUGUGGACCCCGUUUCUUCUGCCGAUGGCUCCCCACCUUUUCCUGUUUCUUUAUCGUGGGUCCGGGAUGGCAACAGAGGAUUGAGCAUCA
B6: chr14:63372511:63372612:-|3pUTR|ENSG00000154001|unk|total|mutant (ssRNA)
RNA: GGGAGUUCUACAGUCCGACGAUCUGGGGAUGAGGGUGGGAUGGGAAAGGGAUGUAUGGAUGUUAUUGGCAUUUUUAAGUGUUCCGAGUUUUUUGGGGUUUGGGGUGGUUUUUUUUCCUUGUUUUCCUUUUUUCCUUUUAAUUGCAACAGAGGAUUGAGCAUCA
B7: chr13:45957189:45957298:-|CDS|ENSG00000123200|unk|total|mutant (ssRNA)
RNA: GGGAGUUCUACAGUCCGACGAUCUGUUUUUGUUUUCUUCAAACCGGGCACCAUAAAACAAGCUUACACGAGUGCUCCAAUGGCCGACAAUGAAUUACUUCGAUUGAGUCUUCGGUUAUUUAAGCGGAAGACUACUUGCCAUGCCAACAGAGGAUUGAGCAUCA
B8: chr22:38736040:38736148:-|3pUTR|ENSG00000100242|msi1|total|mutant (ssRNA)
RNA: GGGAGUUCUACAGUCCGACGAUCCCCCAUGCAGAUGAAAAGGACGGGCAGGGUCUCCUGAGCAGCAGGUGGCUCGAGGCGGUCCGCAGGCUCCAGCAGCUCCCUUCUUCCUUCCCUCUGUGCCCGUGGCGUCUGCUUCCCAUCCAACAGAGGAUUGAGCAUCA
B9: chr1:23091194:23091296:-|CDS|ENSG00000169641|unk|FALSE|unique (ssRNA)
RNA: GGGAGUUCUACAGUCCGACGAUCCUCCAGAAGGACCCAAAGUAGCCUCACUGUGUCAGAGGUGCUUACCCGUCGGAAUCGGGUAGGAGACACCAUCACUGUCGCAGCCUGGAACCACUCAGCAAGCAUGGUGAGUUCCAGCCUCAACAGAGGAUUGAGCAUCA
B10: chr1:9614578:9614679:+|3pUTR|ENSG00000188807|msi1|FALSE|unique (ssRNA)
RNA: GGGAGUUCUACAGUCCGACGAUCUCCAGCUGCCAGCAAUGGUUCCAACUCGGAGGCAGCGCCUCUUGGUCCCCAUUUCUGUAUAGCAGGCGUGUGUGUGUGUGUCGAGGUUUUUUAUUUUUUGCUUAAUCAAACUCCAUUCCCCAACAGAGGAUUGAGCAUCA
B11: chr9:111714444:111714623:-|CDS|ENSG00000165181|control|control|control (ssRNA)
RNA: GGGAGUUCUACAGUCCGACGAUCAGCAUUUUAGGCCCCUAUUUGGGUGACAUUUGGAGACAGCUGGAGAUUGUACAGUUUAUUAGGGGGAAAAAGCCUGAAACCAACUACAAGAUACAAGAAUUGCAAUGUCAGAUACUAAGUCAACAGAGGAUUGAGCAUCA
B12: chr19:41261474:41261596:+|3pUTR|ENSG00000167601|msi1|FALSE|unique (ssRNA)
RNA: GGGAGUUCUACAGUCCGACGAUCUCUAAAGGUCCACAGGUCUAGACUAUUAGGUGCAAUUUCAAGGUUCUAACCCUAUACUGUAGUAUUCUUUGGGGUGCCCCUCUCCUUCUUAGCUAUCAUUGCUUCCUCCUCCCCAACUGUCAACAGAGGAUUGAGCAUCA
B13: chr6:1612588:1612689:+|3pUTR|ENSG00000054598|msi1|total|mutant (ssRNA)
RNA: GGGAGUUCUACAGUCCGACGAUCUUUAUUCAUGGACUUGUUUUAAAAUGUAAAUUGCAACACCGUAAUUUAUUUUUAAUUUGCCGUUGGAUGUCGUGGACCAAACGCCAGAAAGUGUUCCCAAAACCUGACGUUAAAUUGCCUCAACAGAGGAUUGAGCAUCA
B14: chr1:198253062:198253183:+|CDS|ENSG00000151414|unk|total|mutant (ssRNA)
RNA: GGGAGUUCUACAGUCCGACGAUCAUGGGCUAUAAUACAUCCGCCAACUUUCGAACCGAAAAGAAAAUUGGUCGCGGACAAUUCCGUGAAGUUUACCGAGCAGCCUGUCUCUUGGAUGGAGUACCAGCCGCUUUAAAAAAAGUGCAACAGAGGAUUGAGCAUCA
B15: chr9:130903550:130903651:-|3pUTR|ENSG00000130720|msi1|total|mutant (ssRNA)
RNA: GGGAGUUCUACAGUCCGACGAUCAAAUACCCGGCAUUAUGGGGACAGAGAGCAGGGGGCAGACAGCACCCCUGGAGUCCUCCCCGCAGAUCGUGGGGAACGUCAGGUCUCUCUGAGGUCAGGUCUGAGGCCAGUAUCCUCCAGCAACAGAGGAUUGAGCAUCA
B16: chr12:50222030:50222167:-|CDS|ENSG00000050405|unk|FALSE|bound_elsewhere (ssRNA)
RNA: GGGAGUUCUACAGUCCGACGAUCAUCCAGGCAUGAAGUAGAAAAAUCAGAAAUCAGUGAAAACACAGAUGCUUCGGGCAAAAUAGAGAAAUAUAAUGUUCCGCUGAACAGGCUUAAGAUGAUGUUUGAGAAAGGUGAACCAACCAACAGAGGAUUGAGCAUCA
B17: chr2:32415991:32416109:+|CDS|ENSG00000115760|unk|FALSE|unique (ssRNA)
RNA: GGGAGUUCUACAGUCCGACGAUCUGACAUUUCUACUCUUGGACACCUGGUAAUAACCACUCAGGGAGGAUAUGUAAAAAUACUAGAUCUUUCAAACUUUGAAAUUUUGGCCAAAGUGGAGCCUCCCAAAAAGGAGGGCACUGACAACAGAGGAUUGAGCAUCA
B18: chr14:103559255:103559356:-|3pUTR|ENSG00000166170|msi1|total|mutant (ssRNA)
RNA: GGGAGUUCUACAGUCCGACGAUCGCUUAACGGGGUGGGGUUUUUUUGUUUGUUCAGACAGUCUGUUCUUUUGUAAACAUUUUCCGUUGGAAAAACAGCAUCUGCAUUUUCCCCAUCCUCUACGUUUCCGAGAGGAAUCUUGUUCAACAGAGGAUUGAGCAUCA
B19: ENSG00000205339:stop:overlap|stop_codon|ENSG00000205339|stop_codon|NA|stop_codon (ssRNA)
RNA: GGGAGUUCUACAGUCCGACGAUCGGCUCGCCACAACCUCCGCCUCCCGGAUUCGGGCAAUUCUCCUGCCUCAGCCUCUUGAGUAGCUGGGAUUACAGGUGUUAUCUAUCUGAAAAAUAUGAUAACACAGUAUUGGCCUGAUCGCAACAGAGGAUUGAGCAUCA
B20: chr7:139284418:139284519:+|CDS|ENSG00000157741|unk|FALSE|bound_elsewhere (ssRNA)
RNA: GGGAGUUCUACAGUCCGACGAUCGCAAUGAAUGUACCUGCCAGCAGAGGUAGCAACCUUAACUCAAGCGGAGCUAAUAGGACUAGUCUGUCUGGGGGAACAGGAAGUGGAACACAGGGUGCUACCAAACCAUUGUCUACUCCACAACAGAGGAUUGAGCAUCA
B21: chr12:56204332:56204433:-|3pUTR|ENSG00000181852|unk|FALSE|unique (ssRNA)
RNA: GGGAGUUCUACAGUCCGACGAUCUUUUGCCUUUCUCUCACCUUAAUUCCCUUUCUUCCUUACUUUGUUACCUACCCUUAUCUUAGUGCUAACUUCUCUUUCAGGAGGAUGUCUGGGAGUAGUGUGCACUUCACAGCUGCUUUCCAACAGAGGAUUGAGCAUCA
B22: chr5:43295829:43295944:-|CDS|ENSG00000112972|unk|FALSE|unique (ssRNA)
RNA: GGGAGUUCUACAGUCCGACGAUCAAUAUCCUAGCUUUAUUCUAAAGUCAAACUUUAAAAUUUCAUGGCUUAUAUGAAUUUCAUAGUUUCCUUGGACUUCUCUUUCAGAGGGAAAUGAUAAAGAUUUUACCUUGAAUGAUUUUGCAACAGAGGAUUGAGCAUCA

Molecular target: T1, UNK ZnF1-6 (called full-length)
Assay: nsRBNS (natural sequence RNA bind-n-seq); RBNS binding buffer (assumed for nsRBNS): 25 mM Tris pH 7.5, 150 mM KCl, 3 mM MgCl2, 0.01% Triton X-100, 500 ug/ml BSA, 20 U/ml SUPERase-In, 4 C; UNK is unkempt and MSI1 is Musashi-1; names of the RNAs are library labels; protein concentration not given here; high values mean tight binding

Question: For B1, which binding signal is on record?
Answer: 1.02 enrichment R

Question: How did the binding signal turn out when B2 was run?
Answer: 1.28 enrichment R

Question: For B3, which binding signal is on record?
Answer: 0.725 enrichment R

Question: B4 was tested. Which binding signal did it give?
Answer: 0.917 enrichment R

Question: For B5, which binding signal is on record?
Answer: 0.967 enrichment R

Question: How did the binding signal turn out when B6 was run?
Answer: 1.7 enrichment R

Question: B7 was tested. Which binding signal did it give?
Answer: 0.325 enrichment R

Question: Which binding signal does the source give for B8 here?
Answer: 1.02 enrichment R

Question: For B9, which binding signal is on record?
Answer: 0.389 enrichment R

Question: B10 was tested. Which binding signal did it give?
Answer: 0.814 enrichment R

Question: With B11 as the binder, how does the binding signal read?
Answer: 0.757 enrichment R

Question: How did the binding signal turn out when B12 was run?
Answer: 1.44 enrichment R

Question: How did the binding signal turn out when B13 was run?
Answer: 0.325 enrichment R

Question: For B14, which binding signal is on record?
Answer: 0.411 enrichment R

Question: How did the binding signal turn out when B15 was run?
Answer: 0.72 enrichment R

Question: With B16 as the binder, how does the binding signal read?
Answer: 1.1 enrichment R

Question: Which binding signal does the source give for B17 here?
Answer: 0.582 enrichment R

Question: For B18, which binding signal is on record?
Answer: 0.471 enrichment R

Question: With B19 as the binder, how does the binding signal read?
Answer: 0.6 enrichment R

Question: For B20, which binding signal is on record?
Answer: 0.688 enrichment R

Question: With B21 as the binder, how does the binding signal read?
Answer: 0.723 enrichment R

Question: With B22 as the binder, how does the binding signal read?
Answer: 0.69 enrichment R
